Data from a compilation of properties of binary mixtures (doi:10.1021/acs.jpcb.8b11892).
Some of these densities may be calculated back from excess volumes.

Assay: xn = mol fraction of the nth substance listed
Conditions: 101 kPa

O + CCOS(=O)(=O)[O-].CC[n+]1ccn(C)c1
x2 = 0
Conditions	mass density [kg/m3]
293.15 K	998
298.15 K	996
303.15 K	995
313.15 K	992

CC[n+]1ccn(C)c1.O=S(=O)([O-])C(F)(F)F + O
mass density [kg/m3]
Conditions	293.15 K	298.15 K	303.15 K	313.15 K
x1 = 0.001	1001	998	997	993
x1 = 0.002	1007	1005	1004	1000
x1 = 0.004	–	1011	1009	–
x1 = 0.005	1019	–	1016	1012
x1 = 0.008	1027	–	–	1020
x1 = 0.012	1043	–	1039	1035
x1 = 0.017	1058	–	–	–
x1 = 0.029	–	–	1086	–
x1 = 0.041	–	–	1120	1113
x1 = 0.064	1161	–	1155	1148
x1 = 0.094	1201	1197	1194	1186
x1 = 0.137	1242	–	–	–
x1 = 0.216	1285	1281	1277	1269
x1 = 0.391	1333	1329	–	1316
x1 = 0.463	–	1342	1338	1330
x1 = 0.512	–	1348	–	1336
x1 = 0.73	–	1368	1364	–
x1 = 1	1387	1383	1379	1370

CCOS(=O)(=O)[O-].CC[n+]1ccn(C)c1 + O
mass density [kg/m3]
Conditions	293.15 K	298.15 K	303.15 K	313.15 K
x1 = 0.001	1000	998	997	994
x1 = 0.003	1004	–	1000	–
x1 = 0.004	–	1005	1004	1000
x1 = 0.006	1013	1011	1009	1005
x1 = 0.008	1018	–	–	–
x1 = 0.013	1028	1025	1023	–
x1 = 0.019	1039	1036	1034	–
x1 = 0.032	1061	1058	1056	1051
x1 = 0.047	1084	–	–	1072
x1 = 0.071	1111	–	1105	1098
x1 = 0.103	1138	1134	1131	1124
x1 = 0.151	–	1161	1157	–
x1 = 0.229	1190	1186	1183	1175
x1 = 0.303	–	–	1197	–
x1 = 0.473	–	–	1214	1207
x1 = 0.588	1227	1224	–	–
